Drawing on article PMC12820563, this text covers binding signal (RPM ratio (pull-down/input)) for 40 sequences.

This is one part of the list. The list includes weakly bound sequences.

The experiment addresses T1, MBP-FoxP3dN (UniProt Q99JB6).
T1 sequence: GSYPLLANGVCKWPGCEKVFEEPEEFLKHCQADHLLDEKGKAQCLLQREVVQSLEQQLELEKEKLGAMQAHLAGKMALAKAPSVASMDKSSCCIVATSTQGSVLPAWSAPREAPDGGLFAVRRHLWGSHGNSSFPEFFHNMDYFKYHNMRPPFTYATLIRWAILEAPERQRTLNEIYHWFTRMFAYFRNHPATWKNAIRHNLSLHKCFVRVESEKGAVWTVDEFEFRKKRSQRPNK
As to the kind of experiment: PD-seq (MBP pull-down with sequencing). The settings on record: 20 mM Tris-HCl pH 7.5, 100 mM NaCl, 1.5 mM MgCl2, 0.4 uM protein, 0.1 uM dsDNA library, 30 min, room temperature, amylose pull-down; high values mean tight binding; double strand, one strand shown.
For the sequence “GATGATTGTTCTCCCAGCTGATGAATTTGGGAACTCGAGTAAACAAATTTTCCTAATCTTTCTGTTCAAGCGCCATCTAC”, the binding signal (RPM ratio (pull-down/input)) came out at 0.28.
The result for “GATGATTGTTCTCCCAGCTGATGAATTTCTAACTTCGAGTAAACAAATTTTCCTAATCTTTCTGTTCAAGCGCCATCTAC” reads 0.239; that for “GATGATTGTTCTCCCAGCTGATGAATTCTTGGACTCGAGTAAACAAATTTTCCTAATCTTTCTGTTCAAGCGCCATCTAC”, 0.217.
With “GATGATTGTTCTCCCAGCTGATGAATTCAACCAGTCGAGTAAACAAATTTTCCTAATCTTTCTGTTCAAGCGCCATCTAC” the figure was 0.274; with “GATGATTGTTCTCCCAGCTGATGAATTCCTCGCTTCGAGTAAACAAATTTTCCTAATCTTTCTGTTCAAGCGCCATCTAC”, 0.285; with “GATGATTGTTCTCCCAGCTGATGAATTTGTATATTCGAGTAAACAAATTTTCCTAATCTTTCTGTTCAAGCGCCATCTAC”, 6.34.
With “GATGATTGTTCTCCCAGCTGATGAATTCCCAGAGTCGAGTAAACAAATTTTCCTAATCTTTCTGTTCAAGCGCCATCTAC” the figure was 0.15; with “GATGATTGTTCTCCCAGCTGATGAATTAATACACTCGAGTAAACAAATTTTCCTAATCTTTCTGTTCAAGCGCCATCTAC”, 0.831; with “GATGATTGTTCTCCCAGCTGATGAATTCACACTTTCGAGTAAACAAATTTTCCTAATCTTTCTGTTCAAGCGCCATCTAC”, 0.418.
Regarding “GATGATTGTTCTCCCAGCTGATGAATTCGTAAACTCGAGTAAACAAATTTTCCTAATCTTTCTGTTCAAGCGCCATCTAC”, the binding signal (RPM ratio (pull-down/input)) amounted to 0.657.
The result for “GATGATTGTTCTCCCAGCTGATGAATTTGTACAATCGAGTAAACAAATTTTCCTAATCTTTCTGTTCAAGCGCCATCTAC” reads 1.01; that for “GATGATTGTTCTCCCAGCTGATGAATTCGCCCTTTCGAGTAAACAAATTTTCCTAATCTTTCTGTTCAAGCGCCATCTAC”, 0.39.
With “GATGATTGTTCTCCCAGCTGATGAATTAGTACGCTCGAGTAAACAAATTTTCCTAATCTTTCTGTTCAAGCGCCATCTAC” the figure was 0.616; with “GATGATTGTTCTCCCAGCTGATGAATTGGTAAGCTCGAGTAAACAAATTTTCCTAATCTTTCTGTTCAAGCGCCATCTAC”, 0.49; with “GATGATTGTTCTCCCAGCTGATGAATTTACGAATTCGAGTAAACAAATTTTCCTAATCTTTCTGTTCAAGCGCCATCTAC”, 0.745.
With “GATGATTGTTCTCCCAGCTGATGAATTCTTAGCATCGAGTAAACAAATTTTCCTAATCTTTCTGTTCAAGCGCCATCTAC” the figure was 0.731; with “GATGATTGTTCTCCCAGCTGATGAATTCTCAGGTTCGAGTAAACAAATTTTCCTAATCTTTCTGTTCAAGCGCCATCTAC”, 0.227.
With “GATGATTGTTCTCCCAGCTGATGAATTGTACTGCTCGAGTAAACAAATTTTCCTAATCTTTCTGTTCAAGCGCCATCTAC”, the binding signal (RPM ratio (pull-down/input)) amounted to 0.517.
The result for “GATGATTGTTCTCCCAGCTGATGAATTCGATCATTCGAGTAAACAAATTTTCCTAATCTTTCTGTTCAAGCGCCATCTAC” reads 0.62.
With “GATGATTGTTCTCCCAGCTGATGAATTAGATTTCTCGAGTAAACAAATTTTCCTAATCTTTCTGTTCAAGCGCCATCTAC” the figure was 1.12; with “GATGATTGTTCTCCCAGCTGATGAATTTTCGACGTCGAGTAAACAAATTTTCCTAATCTTTCTGTTCAAGCGCCATCTAC”, 0.329.
With “GATGATTGTTCTCCCAGCTGATGAATTGACAGGGTCGAGTAAACAAATTTTCCTAATCTTTCTGTTCAAGCGCCATCTAC” the figure was 0.29.
Turning to “GATGATTGTTCTCCCAGCTGATGAATTTGTGGCTTCGAGTAAACAAATTTTCCTAATCTTTCTGTTCAAGCGCCATCTAC”, the binding signal (RPM ratio (pull-down/input)) is 3.51.
With “GATGATTGTTCTCCCAGCTGATGAATTTCCCTAATCGAGTAAACAAATTTTCCTAATCTTTCTGTTCAAGCGCCATCTAC” the figure was 0.252; with “GATGATTGTTCTCCCAGCTGATGAATTGCGAAGATCGAGTAAACAAATTTTCCTAATCTTTCTGTTCAAGCGCCATCTAC”, 0.459; with “GATGATTGTTCTCCCAGCTGATGAATTCCCATGATCGAGTAAACAAATTTTCCTAATCTTTCTGTTCAAGCGCCATCTAC”, 0.248.
Consider “GATGATTGTTCTCCCAGCTGATGAATTCGTCACCTCGAGTAAACAAATTTTCCTAATCTTTCTGTTCAAGCGCCATCTAC”, for which the binding signal (RPM ratio (pull-down/input)) was found to be 2.
As to “GATGATTGTTCTCCCAGCTGATGAATTTAAAGCATCGAGTAAACAAATTTTCCTAATCTTTCTGTTCAAGCGCCATCTAC”, the binding signal (RPM ratio (pull-down/input)) is 0.776.
With “GATGATTGTTCTCCCAGCTGATGAATTTGTATCGTCGAGTAAACAAATTTTCCTAATCTTTCTGTTCAAGCGCCATCTAC” the figure was 5.21.
Take “GATGATTGTTCTCCCAGCTGATGAATTGACGCAATCGAGTAAACAAATTTTCCTAATCTTTCTGTTCAAGCGCCATCTAC”: the binding signal (RPM ratio (pull-down/input)) was found to be 2.66.
The result for “GATGATTGTTCTCCCAGCTGATGAATTTTTGCAGTCGAGTAAACAAATTTTCCTAATCTTTCTGTTCAAGCGCCATCTAC” reads 0.916.
With “GATGATTGTTCTCCCAGCTGATGAATTCGACCCCTCGAGTAAACAAATTTTCCTAATCTTTCTGTTCAAGCGCCATCTAC”, the binding signal (RPM ratio (pull-down/input)) is 0.366.
The result for “GATGATTGTTCTCCCAGCTGATGAATTCCCGTGCTCGAGTAAACAAATTTTCCTAATCTTTCTGTTCAAGCGCCATCTAC” reads 0.296; that for “GATGATTGTTCTCCCAGCTGATGAATTATTAGTTTCGAGTAAACAAATTTTCCTAATCTTTCTGTTCAAGCGCCATCTAC”, 1.38.
The result for “GATGATTGTTCTCCCAGCTGATGAATTTGTCGCATCGAGTAAACAAATTTTCCTAATCTTTCTGTTCAAGCGCCATCTAC” reads 3.43; that for “GATGATTGTTCTCCCAGCTGATGAATTCAGTCTCTCGAGTAAACAAATTTTCCTAATCTTTCTGTTCAAGCGCCATCTAC”, 0.583; that for “GATGATTGTTCTCCCAGCTGATGAATTGCGGGATTCGAGTAAACAAATTTTCCTAATCTTTCTGTTCAAGCGCCATCTAC”, 0.79.
Regarding “GATGATTGTTCTCCCAGCTGATGAATTCCTGGCGTCGAGTAAACAAATTTTCCTAATCTTTCTGTTCAAGCGCCATCTAC”, the binding signal (RPM ratio (pull-down/input)) was 0.336.
With “GATGATTGTTCTCCCAGCTGATGAATTTGATTTCTCGAGTAAACAAATTTTCCTAATCTTTCTGTTCAAGCGCCATCTAC” the figure was 4.02.
The result for “GATGATTGTTCTCCCAGCTGATGAATTGGGGGTGTCGAGTAAACAAATTTTCCTAATCTTTCTGTTCAAGCGCCATCTAC” reads 0.996.
